# Assay results: article PMC12820563
# The list shows a part of the results. The list includes weakly bound sequences.
# Biological target: T1, MBP-FoxP3dN (UniProt Q99JB6)
# T1 sequence: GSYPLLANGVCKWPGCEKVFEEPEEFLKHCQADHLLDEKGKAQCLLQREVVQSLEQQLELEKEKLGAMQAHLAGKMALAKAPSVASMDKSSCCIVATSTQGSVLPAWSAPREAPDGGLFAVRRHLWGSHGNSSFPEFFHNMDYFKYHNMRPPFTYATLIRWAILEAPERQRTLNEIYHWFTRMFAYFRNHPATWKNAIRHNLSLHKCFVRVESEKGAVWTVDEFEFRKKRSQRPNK
# Test: PD-seq (MBP pull-down with sequencing)
# Details: 20 mM Tris-HCl pH 7.5, 100 mM NaCl, 1.5 mM MgCl2, 0.4 uM protein, 0.1 uM dsDNA library, 30 min, room temperature, amylose pull-down; high values mean tight binding; double strand, one strand shown
row,Sequence,binding signal (RPM ratio (pull-down/input))
1,GATGATTGTTCTCCCAGCTGATGAATTCCGCCTATCGAGTAAACAAATTTTCCTAATCTTTCTGTTCAAGCGCCATCTAC,3.12
2,GATGATTGTTCTCCCAGCTGATGAATTAGTCGAGTCGAGTAAACAAATTTTCCTAATCTTTCTGTTCAAGCGCCATCTAC,0.367
3,GATGATTGTTCTCCCAGCTGATGAATTGGGACATTCGAGTAAACAAATTTTCCTAATCTTTCTGTTCAAGCGCCATCTAC,1.04
4,GATGATTGTTCTCCCAGCTGATGAATTTTCATTATCGAGTAAACAAATTTTCCTAATCTTTCTGTTCAAGCGCCATCTAC,0.571
5,GATGATTGTTCTCCCAGCTGATGAATTTCTCGCGTCGAGTAAACAAATTTTCCTAATCTTTCTGTTCAAGCGCCATCTAC,0.439
6,GATGATTGTTCTCCCAGCTGATGAATTTCTGTAGTCGAGTAAACAAATTTTCCTAATCTTTCTGTTCAAGCGCCATCTAC,0.385
7,GATGATTGTTCTCCCAGCTGATGAATTTGGTGTATCGAGTAAACAAATTTTCCTAATCTTTCTGTTCAAGCGCCATCTAC,3.25
8,GATGATTGTTCTCCCAGCTGATGAATTACCATTATCGAGTAAACAAATTTTCCTAATCTTTCTGTTCAAGCGCCATCTAC,0.602
9,GATGATTGTTCTCCCAGCTGATGAATTTACCTTTTCGAGTAAACAAATTTTCCTAATCTTTCTGTTCAAGCGCCATCTAC,0.465
10,GATGATTGTTCTCCCAGCTGATGAATTATCTGGCTCGAGTAAACAAATTTTCCTAATCTTTCTGTTCAAGCGCCATCTAC,0.242
11,GATGATTGTTCTCCCAGCTGATGAATTGATGGCGTCGAGTAAACAAATTTTCCTAATCTTTCTGTTCAAGCGCCATCTAC,0.857
12,GATGATTGTTCTCCCAGCTGATGAATTTAGTTCCTCGAGTAAACAAATTTTCCTAATCTTTCTGTTCAAGCGCCATCTAC,1.29
13,GATGATTGTTCTCCCAGCTGATGAATTTCGCAAGTCGAGTAAACAAATTTTCCTAATCTTTCTGTTCAAGCGCCATCTAC,2.15
14,GATGATTGTTCTCCCAGCTGATGAATTTATTGCATCGAGTAAACAAATTTTCCTAATCTTTCTGTTCAAGCGCCATCTAC,3.24
15,GATGATTGTTCTCCCAGCTGATGAATTTCACACTTCGAGTAAACAAATTTTCCTAATCTTTCTGTTCAAGCGCCATCTAC,0.382
16,GATGATTGTTCTCCCAGCTGATGAATTCTGGATTTCGAGTAAACAAATTTTCCTAATCTTTCTGTTCAAGCGCCATCTAC,0.311
17,GATGATTGTTCTCCCAGCTGATGAATTCGGAGTGTCGAGTAAACAAATTTTCCTAATCTTTCTGTTCAAGCGCCATCTAC,1
18,GATGATTGTTCTCCCAGCTGATGAATTAACTACCTCGAGTAAACAAATTTTCCTAATCTTTCTGTTCAAGCGCCATCTAC,0.294
19,GATGATTGTTCTCCCAGCTGATGAATTTAGACCGTCGAGTAAACAAATTTTCCTAATCTTTCTGTTCAAGCGCCATCTAC,0.5
20,GATGATTGTTCTCCCAGCTGATGAATTATGGCTATCGAGTAAACAAATTTTCCTAATCTTTCTGTTCAAGCGCCATCTAC,0.842

row,Sequence,binding signal (RPM ratio (pull-down/input))
1,GATGATTGTTCTCCCAGCTGATGAATTTTCCGCCTCGAGTAAACAAATTTTCCTAATCTTTCTGTTCAAGCGCCATCTAC,0.519
2,GATGATTGTTCTCCCAGCTGATGAATTTGATCGTTCGAGTAAACAAATTTTCCTAATCTTTCTGTTCAAGCGCCATCTAC,0.631
3,GATGATTGTTCTCCCAGCTGATGAATTCATGTCCTCGAGTAAACAAATTTTCCTAATCTTTCTGTTCAAGCGCCATCTAC,0.711
4,GATGATTGTTCTCCCAGCTGATGAATTAGACCTTTCGAGTAAACAAATTTTCCTAATCTTTCTGTTCAAGCGCCATCTAC,0.323
5,GATGATTGTTCTCCCAGCTGATGAATTTCCAATCTCGAGTAAACAAATTTTCCTAATCTTTCTGTTCAAGCGCCATCTAC,0.31
6,GATGATTGTTCTCCCAGCTGATGAATTCCCAGACTCGAGTAAACAAATTTTCCTAATCTTTCTGTTCAAGCGCCATCTAC,0.193
7,GATGATTGTTCTCCCAGCTGATGAATTAGAGCTATCGAGTAAACAAATTTTCCTAATCTTTCTGTTCAAGCGCCATCTAC,0.528
8,GATGATTGTTCTCCCAGCTGATGAATTAGGTCCGTCGAGTAAACAAATTTTCCTAATCTTTCTGTTCAAGCGCCATCTAC,0.303
9,GATGATTGTTCTCCCAGCTGATGAATTGCGCATATCGAGTAAACAAATTTTCCTAATCTTTCTGTTCAAGCGCCATCTAC,4.08
10,GATGATTGTTCTCCCAGCTGATGAATTAGTGCACTCGAGTAAACAAATTTTCCTAATCTTTCTGTTCAAGCGCCATCTAC,1.15
11,GATGATTGTTCTCCCAGCTGATGAATTTCCTGCGTCGAGTAAACAAATTTTCCTAATCTTTCTGTTCAAGCGCCATCTAC,0.376
12,GATGATTGTTCTCCCAGCTGATGAATTCCGGTGTTCGAGTAAACAAATTTTCCTAATCTTTCTGTTCAAGCGCCATCTAC,0.754
13,GATGATTGTTCTCCCAGCTGATGAATTAAGCACGTCGAGTAAACAAATTTTCCTAATCTTTCTGTTCAAGCGCCATCTAC,1.23
14,GATGATTGTTCTCCCAGCTGATGAATTGCCGAATTCGAGTAAACAAATTTTCCTAATCTTTCTGTTCAAGCGCCATCTAC,1.06
15,GATGATTGTTCTCCCAGCTGATGAATTTAGCAAGTCGAGTAAACAAATTTTCCTAATCTTTCTGTTCAAGCGCCATCTAC,1.82
16,GATGATTGTTCTCCCAGCTGATGAATTTGTTACCTCGAGTAAACAAATTTTCCTAATCTTTCTGTTCAAGCGCCATCTAC,4.54
17,GATGATTGTTCTCCCAGCTGATGAATTAGGCGCCTCGAGTAAACAAATTTTCCTAATCTTTCTGTTCAAGCGCCATCTAC,1.35
18,GATGATTGTTCTCCCAGCTGATGAATTGCCGACTTCGAGTAAACAAATTTTCCTAATCTTTCTGTTCAAGCGCCATCTAC,0.763
19,GATGATTGTTCTCCCAGCTGATGAATTCTAGTCCTCGAGTAAACAAATTTTCCTAATCTTTCTGTTCAAGCGCCATCTAC,0.309
20,GATGATTGTTCTCCCAGCTGATGAATTTCATCAATCGAGTAAACAAATTTTCCTAATCTTTCTGTTCAAGCGCCATCTAC,0.31
